This is an account of results in PubChem BioAssay AID1346428 (National Center for Advancing Translational Sciences (NCATS), 2018).

Molecules are shown by their SMILES. Several values for one entry are separate records, joined by “and”; a condition that tells them apart may be missing. Equal entries are not always repeated. Out of some 48,000 compounds screened, about 1,200 (2.5%) were called active. About 2% were inconclusive and are not listed.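 How the source made its calls: active means activation of at least 60% and not above a set upper limit (about 1 call in 100 departs from these limits); inconclusive means activation of 40% to 60%, or above that upper limit; inactive means activation under 40%.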 This is one part of the list.

This test concerns the target Probable G-protein coupled receptor 32 (Homo sapiens) (UniProt O75388). Put plainly: qHTS for Agonists of Human Resolvin D1 Receptor DRV1. Further: 0% is about no effect. As to conditions: CHO-K1 GPR32 beta-arrestin PathHunter luminescence, 90 min; at 76.9 µM; hits give high values; zero percent set by DMSO-only wells. In a few lines: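 Readings come from a cell-based beta-arrestin complementation format: CHO-K1 GPR32 stable cells (2,500/well) treated 90 min with compounds, then beta-Gal substrate added for 1 h before chemiluminescence imaging.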
UniProt O75388, sequence (O75388 whole entry, looked up): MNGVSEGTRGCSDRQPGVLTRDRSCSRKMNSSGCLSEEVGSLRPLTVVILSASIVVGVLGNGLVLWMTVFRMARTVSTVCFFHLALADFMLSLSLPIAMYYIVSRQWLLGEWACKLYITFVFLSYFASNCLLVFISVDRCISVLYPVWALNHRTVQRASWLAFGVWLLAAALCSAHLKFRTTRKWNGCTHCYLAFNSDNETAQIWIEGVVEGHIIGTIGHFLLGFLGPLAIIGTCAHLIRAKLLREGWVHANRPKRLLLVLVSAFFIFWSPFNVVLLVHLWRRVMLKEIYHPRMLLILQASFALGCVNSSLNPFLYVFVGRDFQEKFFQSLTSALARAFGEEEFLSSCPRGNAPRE
For the compound `COc1ccc(C2CC(=O)N(CC(=O)Nc3ccc(C(C)=O)cc3)c3ccccc3S2)cc1OC` (stereo unspecified), the activation is inactive: -3.29%.
For the compound `CCCN(CCC)CCNC(=O)c1nn(C)c2c1CS(=O)(=O)c1ccccc1-2`, the activation is inactive: -11.5%.
As to `O=C(NCC(c1ccc2c(c1)OCO2)N1CCN(c2ccccc2F)CC1)c1ccccc1F` (stereo unspecified), the activation was inactive: -37.4%.
For `Cc1ccccc1C(=O)n1nc(-c2ccco2)nc1NCc1cccs1` the value was inactive: -18.1%.
In the case of `Cc1ccc2[nH]c(CSc3nnc(NC(=O)COc4ccc(F)cc4)s3)cc(=O)c2c1`, the activation is inactive: 11.3%.
Take `COc1cc(Cl)c(C)cc1NC(=O)c1nn(C)c2c1CSc1ccccc1-2`: the activation was inactive: -8.49%.
Take `O=C(NCc1nc(-c2ccccc2)no1)c1ccco1`: the activation was inactive: -4.08%.
For `COc1cc(SC)ccc1C(=O)N1CCC(Cc2ccccc2)CC1` the value was inactive: -10.2%; for `O=C(CCCCn1c(=O)c2ccccc2n(Cc2cccc(Cl)c2)c1=O)NCc1ccc2c(c1)OCO2`, inactive: -7.73%.
For the compound `COc1ccc(CNC(=O)c2cc(-c3ccc(Cl)cc3)n[nH]2)cc1`, the activation was inactive: 0.415%.
`CCc1ccc(-n2nc(C)c3c(C)cc(=O)n(CC(=O)N(CC)Cc4ccccc4)c32)cc1`: the activation was inactive: 4.77%.
For `CCc1ccc(C(=O)c2cn(Cc3ccccc3)c3cc(OC)c(OC)cc3c2=O)cc1`, the activation was inactive: -2.96%.
On to `O=C(COc1ccc(F)cc1)OCc1cc(=O)n2nc(C3CC3)sc2n1`, for which the activation is active: 96.8%.
Take `Cc1ccc(CCNC(=O)C2CCCN(S(=O)(=O)c3ccc4c(c3)oc(=O)n4C)C2)cc1` (stereo unspecified): the activation is inactive: -5.41%.
In the case of `COc1ccccc1NC(=O)CSc1nc(-c2cccc(Cl)c2)nc2c1Cc1c(CO)cnc(C)c1O2`, the activation is inactive: 2.1%.
Regarding `CCOc1ccc(CCNC(=O)CCSCc2cccc(Cl)c2)cc1OCC`, the activation was inactive: -29.6%.
For the compound `Oc1c(C(c2ccc(Cl)cc2Cl)N2CCCC2)sc2nc(-c3ccco3)nn12` (stereo unspecified), the activation is inactive: -5.97%.
The result for `CCCCOC(=O)c1ccc(Nc2nc3ccc(C)cc3n3cnnc23)cc1` reads inactive: -8.12%.
Take `CCc1ccccc1NC(=O)COC(=O)c1cn(CC)c2nc(C)ccc2c1=O`: the activation is inactive: -0.0916%.
The result for `O=C(Nc1cc(Cl)ccc1O)c1cc2nc(-c3ccc4c(c3)OCO4)cc(C(F)(F)F)n2n1` reads inactive: -13.1%; that for `CN(C)c1ccc(NC(=O)C2(c3cccs3)CCOCC2)cc1`, inactive: -29.7%; that for `O=C(CSCc1ccc(F)cc1)N1CCc2c([nH]c3ccccc23)C1c1ccccc1` (stereo unspecified), inactive: -37.6%.
For `CCCOc1ccc(Cn2c(=O)sc3ccccc32)cc1` the value was inactive: -5.52%.
For `O=C(c1cc(O)c(O)c([N+](=O)[O-])c1)c1ccccc1F` the value was inactive: -35.9%.
As for `COc1ccccc1NC(=O)c1c(NC(=O)c2cccs2)sc2c1CCC(C(C)(C)C)C2` (stereo unspecified), the activation was inactive: -1.17%.
Turning to `Cc1ccc(-c2nc(SCC(=O)Nc3cc(C)on3)c3c(=O)n(C)c(=O)n(C)c3n2)cc1`, the activation is inactive: 2.27%.
With `O=C(CC(=O)Nc1ccccc1F)Nc1ccc2nc3n(c(=O)c2c1)CCCCC3`, the activation is inactive: -14.7%.
As to `Cc1cccc(N2CCN(C(=O)c3ccc4c(c3)N(Cc3cccc(Cl)c3)C(=O)c3ccccc3S4=O)CC2)c1C` (stereo unspecified), the activation was inactive: -20.8%.
As to `CCc1ccc(OC(=O)c2sc3ncn(Cc4cccc(F)c4)c(=O)c3c2C)cc1`, the activation was inactive: -8.6%.
For `CCCCCNc1nc2c(-c3ccccc3)nnn2c2ccccc12`, the activation was inactive: -5.51%.
Turning to `CCN(CCCCOC(=O)c1ccc(OC)c(OC)c1)C(C)Cc1ccc(OC)cc1` (stereo unspecified), the activation is inactive: -9.74%.
With `CCOc1cc(Cl)c(S(=O)(=O)n2cc(C)nc2CC)cc1Cl`, the activation is inactive: 15%.
With `COc1cccc(NC(=O)Nc2cc(-c3cn4cccnc4n3)ccc2OC)c1`, the activation was inactive: -1.06%.
The result for `CCn1cc2nc(SCc3ccccc3)n(Cc3ccc(C)cc3)c(=O)c2n1` reads inactive: 2.99%; that for `O=C(NCC(c1ccco1)S(=O)(=O)c1cccs1)c1ccc(C(F)(F)F)cc1` (stereo unspecified), inactive: -2.63%.
Regarding `CN(C)c1ccc(CNS(=O)(=O)c2csc(C(N)=O)c2)cc1`, the activation was inactive: 1.13%.
Consider `Cc1cc(C(C)(C)C)cc(C)c1CC1=NCCN1`, for which the activation was inactive: 5.08% and inactive: -7.45%.
Turning to `COc1ccc(C)cc1NC(=O)c1cc(S(=O)(=O)NCCC2=CCCCC2)ccc1F`, the activation is inactive: -24.8%.
For `Clc1ccc(-c2noc3ncnc(N4CCCCC4)c23)cc1` the value was active: 82.5%; for `COc1ccc(-c2noc(CSc3nnc(C)n3-c3ccc(C)cc3)n2)cc1`, inactive: -2.18%.
In the case of `Cn1c(=O)c2c(nc(NCc3ccccc3)n2Cc2ccc(Cl)c(Cl)c2)n(C)c1=O`, the activation is inactive: 22.1%.
As for `COc1ccc(C(=O)NCCc2nc3ccccc3[nH]2)cc1`, the activation is inactive: 1.75%.
Take `CCCSc1nc2c(c(=O)[nH]1)C(c1ccc(O)c(OCC)c1)CC(=O)N2` (stereo unspecified): the activation was inactive: -9.18%.
Turning to `COc1ccc(N2CC(C(=O)Nc3ccccc3-c3nc(-c4ccc(C)cc4)no3)CC2=O)cc1` (stereo unspecified), the activation was inactive: 2.14%.
As for `CCOc1ccc(C(CC(=O)Nc2ccc(C(=O)OC)cc2)N2Cc3ccccc3C2=O)cc1OC` (stereo unspecified), the activation was inactive: -3.36%.
In the case of `O=c1[nH]ccc2c(O)cccc12`, the activation was inactive: -9.86%.
With `COc1cccc(NC(=O)c2oc3ccc(S(=O)(=O)N4CCC5(CC4)OCCO5)cc3c2C)c1`, the activation was inactive: 9.26%.
The result for `CC(C)(C)c1ccc(OCc2cc(=O)n3c4c(sc3n2)CCCC4)cc1` reads inactive: -5.54%.
Regarding `Cc1ccccc1CSCc1ccc(C(=O)NCCc2ccccc2)o1`, the activation was inactive: 0.56%.
As for `CCOC(=O)C1=C(CN(C)Cc2ccccc2)NC(=O)NC1c1ccc(OC(C)C)cc1` (stereo unspecified), the activation is inactive: 3.03%.
As to `CC(C)c1ccc(Nc2c(-c3ccsc3)nc3ccc(Cl)cn23)cc1`, the activation was inactive: -6.03%.
As to `Cc1ccc2nc(NCCc3ccc(Cl)cc3)c3nncn3c2c1`, the activation is inactive: -1.36%.
As to `COc1ccc(C)cc1NC(=O)Cc1ccc(NC(=O)N2CCCCc3ccccc32)cc1`, the activation is inactive: -3.05%.
For `Cc1ccc(C)c(Oc2c(C(F)(F)F)oc3c(CN4CCN(C)CC4)c(O)ccc3c2=O)c1`, the activation is inactive: -14.3%.
For `C[C@@H]1C[C@H]2[C@@H]3CCC4=CC(=O)C=C[C@]4(C)[C@@]3(F)[C@@H](O)C[C@]2(C)[C@H]1C(=O)CO` the value was inactive: 6.34%.
Consider `C#CC(C)(CC)OC(=O)c1ccccc1C(=O)O` (stereo unspecified), for which the activation was inactive: 37.3%.
In the case of `CCn1cc(C(=O)NCc2ccccc2Cl)c(=O)c2cc(S(=O)(=O)N3CCOCC3)ccc21`, the activation was inactive: -1.37%.
Turning to `CCC(=O)C1=C(c2ccccc2)N(C(=O)CC)n2c(nnc2C2CCCCC2)S1`, the activation was inactive: -18.5%.
As to `O=C(Nc1ccccc1[N+](=O)[O-])c1csnn1`, the activation is inactive: -1.72%.
As for `CCCOc1ccc(CNC(=O)c2cc3oc4ccccc4c3n2C)cc1`, the activation was inactive: -20.9%.
On to `COC(=O)c1c(SC)nc2ccccc2c1OCc1cc(C)ccc1C`, for which the activation is inactive: -10.3%.
The result for `Cc1ccc(CNC(=O)c2ccc(NC(=O)c3nsc4ccccc34)cc2)cc1` reads inactive: -9.04%; that for `O=C(Nc1ccc2nc(SCC(=O)N3CCc4ccccc43)sc2c1)c1ccc(Cl)cc1`, inactive: 16.5%; that for `O=C(CSc1nc(-c2cccs2)cc(C(F)(F)F)n1)Nc1ccccc1Cl`, inactive: -1.17%.
In the case of `CCN(CC)CCOCCOC(=O)C1(c2ccccc2)CCCC1`, the activation was inactive: 24% and inactive: 5.54%.
`Cc1ccc(NC(=O)CN2C(=O)C(c3ccc(F)cc3)=NC2(C)C)c(C)c1`: the activation was inactive: -5.78%.
Take `CCOc1ccccc1NC(=O)C(=O)NCC(c1cccnc1)N1CCN(c2ccccc2)CC1` (stereo unspecified): the activation was inactive: -17.2%.
Take `Cc1ccc(N2CCN(C(=O)Nc3cn(CC(C)C)c(=O)c4ccccc34)CC2)c(C)c1`: the activation is inactive: -7.07%.
In the case of `Cc1ccc(NC(=O)c2cc(-c3cccs3)nc3ccccc23)c(C)c1`, the activation was inactive: -1.57%.
Turning to `CC(C)CCn1c(=O)c2sccc2n2c(CCCC(=O)Nc3ccc(F)c(Cl)c3)nnc12`, the activation was inactive: -20.4%.
The result for `O=C(NCc1ccc(F)cc1Cl)c1ccc(CSCc2ccccc2Cl)o1` reads inactive: -33.8%; that for `CC(C)Oc1ccc(CNC(=O)c2cnc3sc(N4CCCCCC4)nn3c2=O)cc1`, inactive: -3.54%.
`COc1ccccc1NC(=O)Cn1c(=O)n(Cc2nc(C)no2)c(=O)c2cc3c(cc21)OCO3`: the activation was inactive: -6.85%.
Regarding `COc1ccccc1NC(=O)N1CCOc2ccccc21`, the activation is inactive: 30.5%.
The result for `Cc1cc(C)n2nc(CNS(=O)(=O)c3ccc(F)cc3)nc2n1` reads inactive: -9.4%; that for `CCOc1ccc(/C=C/c2nc(C#N)c(N3CCCCCC3)o2)cc1`, inactive: -21.3%.
In the case of `Cc1ccc(CNC(=O)c2ccc(CSCc3c(F)cccc3Cl)o2)cc1`, the activation was inactive: -38.6%.
For the compound `COc1cccc(CNC(=O)c2ccc(CN3CC(=O)N4CCCCC4C3=O)cc2)c1` (stereo unspecified), the activation is inactive: -15.4%.
On to `COc1ccccc1/C=C(\C#N)C(=O)NCC1CCCO1` (stereo unspecified), for which the activation was inactive: -0.397%.
As to `CCn1c(C(=O)NCc2ccccc2)cc2sc(Cl)cc21`, the activation is inactive: -16.4%.
Take `COC(=O)c1cc2oc3ccccc3c2n1CC(=O)Nc1ccc(C)cc1Cl`: the activation was inactive: -4.5%.
Take `CCCN(CCC)CCNC(=O)Cn1cnc2sc(C)c(S(=O)(=O)N3CCN(c4ccccc4OC)CC3)c2c1=O`: the activation was inactive: 11.1%.
On to `CCOc1ccc(-n2c(SCC(=O)N3CCCc4ccccc43)nc3c([nH]c4ccccc43)c2=O)cc1`, for which the activation was inactive: -9.83%.
In the case of `O=C(CCn1c(=O)c2ccccc2n(Cc2ccc(Cl)cc2)c1=O)NCc1ccc2c(c1)OCO2`, the activation is inactive: -2.02%.
For the compound `CCOc1ccccc1NC(=O)CCS(=O)(=O)c1ccc(OC)cc1`, the activation was inactive: -7.18%.
For the compound `CCc1ccc(NC(=O)c2cc(CN3CCOCC3)on2)cc1`, the activation is inactive: 19.7%.
